# Source: the RNAGym collection of RNA variant scans (doi:10.1093/nar/gkz1192)
# The source gives no read counts; variants with many changes may rest on few reads.
# B1: CPEB3 Ribozyme (parent)
# chain: UAACAGGGGGCCACAGCAGAAGCGUUCACGUCGCAGCCCCUGUCAGAUUCUGGUGAAUCUGCGAAUUCUGCUGUAUAUCUC
# Variants of: B1
# Experiment: self-cleavage, relative activity (ratio to wild type); higher = more cleavage; in vitro, sequencing
# Procedure, shortened: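 Relative activity was defined as the cleaved/total read fraction for a variant divided by the same fraction for the unmutated ribozyme. CPEB3 self-cleaving ribozyme libraries were made by rounds of error-prone PCR, barcoded, and transcribed in vitro with T7 RNA polymerase for 5 hours at 37°C, and cleavage ran through transcription plus a 15 min DNase I step before EDTA. Illumina sequencing of template-switched reverse transcripts gave the reads, and DNA sequencing mapped the barcodes. Averages come from three batches, using variants with at least 5 reads.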
row,Variant,self-cleavage
1,A18G C23U U26A U31G U48C U49C,0.06
2,A18G G24A U26C U67A,0.19
3,A18G U48C A56G G70A,0.16
4,A18G A65G U78C,0.32
5,A18G A45U U51G U60C U66C,0.13
6,A18G C40A U72C,0.27
7,A18G A35C U41C,0.23
8,A18G G30C A56G G63A A77U,0.17
9,A18G C23A U78A,0.31
10,A18G U43A U51C C71G,0.38
11,A18G C27U A35U C37U A64U U67A A77U,0.04
12,A18G G24A U51A A64G,0.16
13,A18G U26C U31C U43C,0.31
14,A18G A77G U78C,0.45
15,A18G U26C U41C,0.32
16,A18G U49C A56U A64U,0.12
17,A18G A57G U76C U78C,0.44
18,A18G C34U U41C U43A U48C U67C,0.05
19,A18G G22C A28G U51A,0.25
20,A18G U25C U43C U49A U51C A64G,0.07
21,A18G G36A U43C A57G U58C,0.15
22,A18G A45U A56G A57G,0.19
23,A18G A45C U49C,0.2
24,A18G G22C C32U,0.39

row,Variant,self-cleavage
1,A18G U41C U51A U67C,0.47
2,A18G C40U U41A U51C U60C,0
3,A18G U26C C29U U31C A45G U49C U76C,0.08
4,A18G A45G U51A U60C,0.95
5,A18G U26C A35U G70A A77G,0.07
6,A18G A47G U51C U76C,0.15
7,A18G U43C A45G U67C,0.38
8,A18G U49A U67C,0.15
9,A18G U25C A45G U58C,0.29
10,A18G U31C U58C,0.19
11,A18G U43C U48C U58C A75G,0.05
12,A18G A64G U66C C68A,0.22
13,A18G C32U G70A U72G,0.06
14,A18G A45U U51A A56U,0.16
15,A18G C39A U43A A45G U58C,0.1
16,A18G G22A U25C U67A U80C,0.05
17,A18G C37U A45G U51A,0.12
18,A18G A35G C39U A56G,0.42
19,A18G U26A A75G,0.27
20,A18G A35U C62U,0.42
21,A18G U25C G30A G63A U78C,0.06
22,A18G U25C C40U U58C C62U U80C,0.04
23,A18G U26A U51C A56C,0.21
24,A18G A64G A65G A77G,0.14

row,Variant,self-cleavage
1,A18G U26C U48C C68A,0.35
2,A18G A28U U41C,0.5
3,A18G A35G U43C A45G U76C,0.23
4,A18G C32U A45G A57G U66C,0.06
5,A18G G30A U54A,0.12
6,A18G A56G U67C U74A,0.18
7,A18G A35C U41C U78C,0.67
8,A18G A45G A77G U78C,0.29
9,A18G U31A U54A,0.38
10,A18G U26A U72A,0.33
11,A18G U26A U48A U67C,0.05
12,A18G A35G U76G,1.09
13,A18G G33A U43A A77U,0.16
14,A18G U31C A65G U66C,0.34
15,A18G U43C U48C G53A A64U,0.11
16,A18G U41C U51G U80C,0.74
17,A18G A45G U51C A56U A64G,0.1
18,A18G A35C U72G,0.49
19,A18G A28G U60A U67G U69C,0.16
20,A18G U31A U41A U67A G70A,0.23
21,A18G U26A U41C A57G U72A,0.09
22,A18G G73A U78C,0.98
23,A18G C27U U74C,0.27
24,A18G U26A A28G G36A U48A U72A,0.1

row,Variant,self-cleavage
1,A18G C40A U43A U69C,0.32
2,A18G C32U A35G A45U,0.12
3,A18G A35G C59A U67C,0.2
4,A18G U31C A45G,0.13
5,A18G U26C A57U U67C,0
6,A18G A45G A57G C59G U80C,0.11
7,A18G A56G U66C,0.16
8,A18G A35G A56U,0.77
9,A18G A45G A47U,0.19
10,A18G U25C A47G U72G U78A,0.04
11,A18G U43C A56C,0.14
12,A18G U41C U43A A45U,0.19
13,A18G U25C U41C,0.3
14,A18G U26C U43A A45G U60C,0.21
15,A18G G22C A57G,0.06
16,A18G A35G A57U U60G C68U U76G,0.23
17,A18G A28U C38A,0.27
18,A18G U41A U51A U80C,0.34
19,A18G U26A C29U U76A,0.22
20,A18G U26C C50A A65G U67A U76A,0.08
21,A18G A28G U54G,0.2
22,A18G A64U A77U,0.27
23,A18G A35C U60A U67C A77U,0.18
24,A18G U43A U66C A77U U80A,0.4

row,Variant,self-cleavage
1,A18G U43C A45U G70A,0.1
2,A18G U48C U58A,0.21
3,A18G C38G U60C,0.09
4,A18G U26C A28C C40G U67C,0.16
5,A18G A35U A47G,0.12
6,A18G U31G U60A,0.42
7,A18G A47G A56G,0.42
8,A18G A35G A45C U76A,0.42
9,A18G U41C A56G,0.54
10,A18G U41C A56U,0.2
11,A18G G24C U25C,0.2
12,A18G U25A U26C A57G,0.2
13,A18G U26C A28G G33A U54A U66C U78C,0.07
14,A18G A28U U31C U60A,0.05
15,A18G G55C A64C,0.13
16,A18G G63C U80C,0.71
17,A18G G19U U66C U76A,0.07
18,A18G G19A A28U U41A G63U,0.19
19,A18G U31A A35U,0.24
20,A18G U26A U80C,0.9
21,A18G C59G C62U U74C,0.17
22,A18G U41A U49A U54C A57G A64G U78C,0.15
23,A18G G33A A45G G73A,0.09
24,A18G A45U U54C U67C U78A,0.25

row,Variant,self-cleavage
1,A18G U43A U76A,0.95
2,A18G A47G U51A G70A U80G,0.23
3,A18G G61C A77G,0.2
4,A18G U49A U72A,0.15
5,A18G U26C A47G U49G,0.35
6,A18G A64U U67A,0.21
7,A18G A35G A57G U66C,0.48
8,A18G G24U C81G,0.2
9,A18G U25C U49C G53C U74A,0.28
10,A18G A35G C59U A64G U67C,0.21
11,A18G C29G A75C U78C,0.07
12,A18G A35G U60A,0.4
13,A18G U31C U66A,0.07
14,A18G G33C A65G U80A,0.16
15,A18G U43G U48A,0.23
16,A18G C29U U41C C68A U69A,0.1
17,A18G C32U U51A,0.09
18,A18G U49A U67C A77G,0.1
19,A18G A47U U60A U66A,0.22
20,A18G U41C U51C U72C,0.2
21,A18G A56U U69G,0.29
22,A18G U43A A47G U72C,0.62
23,A18G U26C G33A,0.1
24,A18G C62G U74A,0.22

row,Variant,self-cleavage
1,A18G U25C U54C G73U U76C,0.07
2,A18G G19A A20G,0.27
3,A18G C39A U49C U54C A57G U72A U80C,0.04
4,A18G U43A A65G U80C,0.44
5,A18G C44G G55A,0.2
6,A18G A45U A65G A77U,0.09
7,A18G U43A A56G A57G U60A,0.17
8,A18G C38U U49C G55U A64G U69A,0.04
9,A18G U25C C37U,0.19
10,A18G G36A A45G U54C U67C U74A,0.07
11,A18G U26A C68A U69G,0.21
12,A18G U26C C40A A45G U58A U67C U69G,0.06
13,A18G A56G C62A U67A U78A,0.07
14,A18G A45U U48A U76C U78C,0.16
15,A18G A35U A56C U67C,0.07
16,A18G U43C C44U U48A U49C C62G A77G,0.13
17,A18G U41C U54C,0.58
18,A18G A57G U67C,0.18
19,A18G A57G U67G,0.09
20,A18G C29U U41G U54G,0.07
21,A18G U31C G33U U74C,0.23
22,A18G A28U U31A U66C U69A,0.14
23,A18G G33A A35U G36A A45G A75U,0.2
